# Results reported in article PMC12136788.
# The list shows a part of the results.
# T1: UNK ZnF1-3 (human, UniProt Q9C0B0 31-174)
# T1 sequence: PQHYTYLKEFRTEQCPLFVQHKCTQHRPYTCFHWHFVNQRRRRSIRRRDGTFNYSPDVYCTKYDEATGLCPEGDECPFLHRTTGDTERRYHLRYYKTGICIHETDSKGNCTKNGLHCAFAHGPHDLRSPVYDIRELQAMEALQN
# B1: chr4:76721835:76721836:+_ENSG00000138768_ENST00000264904|hu_mus|hu_hu_hu_mus_True|18_78 (ssRNA)
# RNA: GGGAGUUCUACAGUCCGACGAUCGUUUGGCUGGGGUUUCUGAGACGCUCUGGAAUAAACUCAUGUUUUGCUAAUAAAUCCUAGUUUCUCUAUGAAAUUCUCUUUGCCAAUCCUCUUUCAAUCAGUUUGCUUUAGUUUCUCUUUCAACAGAGGAUUGAGCAUCA
# B2: chr3:35977374:35977375:+_ENSMUSG00000027710_ENSMUST00000011492|mus_mus|FALSE|FALSE (ssRNA)
# RNA: GGGAGUUCUACAGUCCGACGAUCCACAGGCACUCUGGUAUUUUCAAAAUGGACCUCACAUGUGUUGGAGCCUCGAAUGCCUAAUUUAUCUUCAGGUUUCCCAUUAGUGAUUCCGCCGAAGUCUCUUUCUACUAUGAAUGCGGUCAACAGAGGAUUGAGCAUCA
# B3: chr4:21667751:21667752:+_ENSMUSG00000028252_ENSMUST00000108240|mus_hu|FALSE|FALSE (ssRNA)
# RNA: GGGAGUUCUACAGUCCGACGAUCUUCUAAUAUAUGAUUCAUCCUAUAAGGAAAUUCCUUUGGAAAGGCAUAUGAAAAUCUAGUUUUUAAUACAGAAGUAGCAGCAGCAAUCAAUCUUGUAUUUGAAACUACUCCAAAUUCCUCCAACAGAGGAUUGAGCAUCA
# B4: chr2:152319639:152319640:+_ENSG00000080345_ENST00000243326|hu_hu|FALSE|FALSE (ssRNA)
# RNA: GGGAGUUCUACAGUCCGACGAUCUUGCCUCCGACUUGUAGGGUAUGGGGGAGUUCCAGCAACAGUGGUAUUAGAAACUGAACUACUGCUGACAACGAAAGAAUUUUCUGUACUAGAUGCACAUUCAGUUGAUGUUUUCCUUGACAACAGAGGAUUGAGCAUCA
# B5: chr7:149068622:149068623:-_ENSMUSG00000025139_ENSMUST00000001950|mus_hu|mus_mus_mus_hu_False|8_8 (ssRNA)
# RNA: GGGAGUUCUACAGUCCGACGAUCGUGAGGCCUCUGAGUGUGGCUUGUGGUCUGUCCUGGGUUAGAGUUGUUAAUAUCACGGAACAUACCAUCUAGAACGUUCCAGUCCCGCCUGACACCUUCAUUCGCAAGAGGGCAGAAAUCCAACAGAGGAUUGAGCAUCA
# B6: chr10:28872372:28872373:+_ENSG00000095787_ENST00000354911|hu_hu|FALSE|FALSE (ssRNA)
# RNA: GGGAGUUCUACAGUCCGACGAUCUGCAUCUGAAGUUUUGCUUGGGUUAUUGCUUGGAUUAGAAGAAUGUGAAUUUGAACUAUGAAGAGCACUGUGGUUGUGUGAAUUUUCUUGUGGAGAGUAACUGGUCCCACCAUCCCUCUCCAACAGAGGAUUGAGCAUCA
# B7: chr2:132618855:132618856:+_ENSMUSG00000027350_ENSMUST00000028826|mus_mus|FALSE|FALSE (ssRNA)
# RNA: GGGAGUUCUACAGUCCGACGAUCUUCAGGUUCUUCUUCUGAAGCCCUGUAGUGAGCUAGAUGGUGACUCCUUUUUUCCCCUAAACGGACUGUGGCCACAUCUGCCUCCUUGGACUCCUUGGGAGAGGGUCUCCUUUCCUCAGACAACAGAGGAUUGAGCAUCA
# B8: chr7:135837783:135837784:+_ENSMUSG00000042105_ENSMUST00000151237|mus_mus|FALSE|FALSE (ssRNA)
# RNA: GGGAGUUCUACAGUCCGACGAUCUAGGUUGCCGAUGUUCACAUUGGAUUUGGUCUGCUUUACUUUUUGAUUUAGAGAUGAAAAUUUGCUCAUUAAAAAGCUUUUCCCCUGGGCAAGAGAGCCUUGGUUUUGAGAUCUGAUACCCAACAGAGGAUUGAGCAUCA
# B9: chr10:33190432:33190433:-_ENSG00000150093_ENST00000302278|hu_mus|hu_hu_hu_mus_True|28_38 (ssRNA)
# RNA: GGGAGUUCUACAGUCCGACGAUCUACAUUUUCCAAACCUGCAUGUGAAUAAAACCCUGGCCACAGAGCCCCAAAACUACCCUACUGUGACUAAGAUAAUUGCUACUUUGCAUUCAGGUUGCAAAAUCCGCCUGAGUAGGAUUCCAACAGAGGAUUGAGCAUCA
# B10: chr2:202488911:202488912:-_ENSG00000155755_ENST00000286196|hu_mus|hu_hu_hu_mus_False|1_68 (ssRNA)
# RNA: GGGAGUUCUACAGUCCGACGAUCAUUGAAACAUUUUUCAUAAUCUCCAGUAGCAUUUCAGCAUUAUUAAUCAAAAACUCAAUUGUAAAUACAUGUAUCUUAUAAAAAUACACUUAAAAACACGAGUGGGGAGCGCACAAAUACCAACAGAGGAUUGAGCAUCA
# B11: chr16:94664741:94664742:+_ENSMUSG00000040785_ENSMUST00000117648|mus_hu|mus_mus_mus_hu_False|48_58 (ssRNA)
# RNA: GGGAGUUCUACAGUCCGACGAUCUGGUACUGAUCUUGGUAGCUGAUAUUCAGGAGAAAGGCUGGCCAAGGGUGUAUAAAUGCUAGUGAACUGCGACAAACCUGGUAACACGUUUAUGUAUGCUGGCGGUGUCUGGGUGAUAUCCAACAGAGGAUUGAGCAUCA
# B12: chr11:23509083:23509084:-_ENSMUSG00000042208_ENSMUST00000043356|mus_hu|motif|central (ssRNA)
# RNA: GGGAGUUCUACAGUCCGACGAUCUGUUCCCCACAAUCGCCAGUAUACAUCUCUCCAAGAUUUUAAUUCUUCGAAAAGACGGUUCAAAUACUCAUGAACAUCCCAUGUCUUAUCUCUUAUGUGAAUAUAGACAAUAUUUCCACGCAACAGAGGAUUGAGCAUCA
# B13: chr2:61705333:61705334:-_ENSG00000082898_ENST00000401558|hu_mus|motif|central (ssRNA)
# RNA: GGGAGUUCUACAGUCCGACGAUCUCGACAAGCGACAGCACACACACACACACACAAACAAAAAGAACUGUGUAAAAAUAACGGACUGUUCCCAUAUUUUUGAAGUUGCUUUACAAUGGGAUGAUAUGCACAUGAUCUUGCUGCCAACAGAGGAUUGAGCAUCA
# B14: chr19:60949100:60949101:-_ENSMUSG00000024997_ENSMUST00000025961|mus_mus|motif|central (ssRNA)
# RNA: GGGAGUUCUACAGUCCGACGAUCGGCAGAGGCAGACCACAGUAUGUCUGUCAAACAGGUUCUUCUAGAAGCAACAGGCCGGAGAACUGUUGAGGCAGAAAUACUCCGGGAAAUAGCACUUGCAUGACGAGCAACCGAGGACCACAACAGAGGAUUGAGCAUCA
# B15: chr16:57283700:57283701:+_ENSG00000102931_ENST00000219204|hu_hu|FALSE|FALSE (ssRNA)
# RNA: GGGAGUUCUACAGUCCGACGAUCUGUGGUGAAGGCUGCCAUGUUGAACUCAGGAAUCCGCUGCAGCAGCUGUUCUUCAAUGUAUUUUUCUACCAAAGAAAUGUAUUCAUUAAAAAUAGGUGUGUAGAUGAGUUUAUUCUCUUCCAACAGAGGAUUGAGCAUCA
# B16: chrX:35795285:35795286:-_ENSMUSG00000016534_ENSMUST00000061755|mus_mus|motif|central (ssRNA)
# RNA: GGGAGUUCUACAGUCCGACGAUCGAAAUUCAUCUCCCAUUCUGCAUAAAGGCAAGUACCCUUUGAAUCUGUCAAAUUAACGGUCAAUGCAUUGGACUGAACGGCUCCUAGGAACAGAAAGAUCAGGAUGAGCUUUGCGCCUUUCAACAGAGGAUUGAGCAUCA
# B17: chr2:47387770:47387771:-_ENSG00000143933_ENST00000272298|hu_mus|hu_hu_hu_mus_True|1_8 (ssRNA)
# RNA: GGGAGUUCUACAGUCCGACGAUCAAGGUUUAAGGACAAUGACAGUAAGAUAAGGGAAGAAAACAUGGAGGAAUGAAGUCCUAAUUACUAUACAUGCAUAUUUUUUGACAGUAGGGGGGGGGAACCUUACAGAUAAGUUACAAACAACAGAGGAUUGAGCAUCA
# B18: chr8:42798479:42798480:+_ENSG00000168172_ENST00000307602|hu_hu|FALSE|FALSE (ssRNA)
# RNA: GGGAGUUCUACAGUCCGACGAUCAGAAUGCUCCCCAAUAAGGUUCACAUCAGGAAGGGUAAAGUCAUUAAUUUGCUGUCCUAAAAUCUCAUGAUUAUAAUCCAAGAUUCCUUUUAAAAUUUUCUUUAAAUUGCUUAUCUUUAGCAACAGAGGAUUGAGCAUCA
# B19: 2203353_2203473_684_CDS_ENSG00000070366_ENST00000263073|human|control|control (ssRNA)
# RNA: GGGAGUUCUACAGUCCGACGAUCGUCGUGGGUUUCCCUCACCCCCUCCCCUUUUCCCAUCCUCUUUCCUUUUUCUCCUUUUGCAGCCCCUACUCUCCCACCACCUGGGCUCUUUUCUAUCUCAGCCCUGUCUGGUUUAUUCGCCAACAGAGGAUUGAGCAUCA
# B20: chr11:4749296:4749297:-_ENSMUSG00000009073_ENSMUST00000109910|mus_hu|motif|central (ssRNA)
# RNA: GGGAGUUCUACAGUCCGACGAUCGCGACCCGGCACUCCGGGAUUCGGGCCGGAGAUGCCGGGGACGCCUCGGGACGGGACCCCGGGACGGCAGCGGCCCAGACUCCGCGCGCCUCUCAGCGGCCGACUAGGGUCACGGGGCCGCAACAGAGGAUUGAGCAUCA
# B21: chr19:16212804:16212805:+_ENSG00000167460_ENST00000300933|hu_mus|hu_hu_hu_mus_False|1_8 (ssRNA)
# RNA: GGGAGUUCUACAGUCCGACGAUCAACAAUUCUGGAGUGAAGGAAAGAUGUAACAUGGAACAGCAUUAAAGCUCAGUCAGAAGGCACAUGGGCAACAAUGAUCACCCCAGCAUUCUCGCUUGGAAUGUGCUUGAGAAGAUGUUUCAACAGAGGAUUGAGCAUCA
# B22: chr16:4561903:4561904:-_ENSG00000089486_ENST00000567695|hu_hu|FALSE|FALSE (ssRNA)
# RNA: GGGAGUUCUACAGUCCGACGAUCAGGCAUGGCCUGAAAGGGGGUCUGCACACUGACUCAAAGGGACAAGUUCCUUCUUAGCUACCAGGGUCUGAUCAUUCACCCAGGUACAGUGUCCUCUCUACCUGACACCAGGCAGCUCUCCAACAGAGGAUUGAGCAUCA
# Biological target: T1, UNK ZnF1-3
# Assay: nsRBNS (natural sequence RNA bind-n-seq); RBNS binding buffer (assumed for nsRBNS): 25 mM Tris pH 7.5, 150 mM KCl, 3 mM MgCl2, 0.01% Triton X-100, 500 ug/ml BSA, 20 U/ml SUPERase-In, 4 C; UNK is unkempt and MSI1 is Musashi-1; names of the RNAs are library labels; protein concentration not given here; high values mean tight binding
row,Binder,binding signal
1,B1,0.496 enrichment R
2,B2,0.764 enrichment R
3,B3,0.759 enrichment R
4,B4,0.915 enrichment R
5,B5,0.921 enrichment R
6,B6,1.35 enrichment R
7,B7,0.487 enrichment R
8,B8,0.964 enrichment R
9,B9,0.889 enrichment R
10,B10,1.67 enrichment R
11,B11,1.08 enrichment R
12,B12,1.12 enrichment R
13,B13,0.945 enrichment R
14,B14,1.5 enrichment R
15,B15,1.02 enrichment R
16,B16,1.11 enrichment R
17,B17,2.3 enrichment R
18,B18,1.45 enrichment R
19,B19,0.426 enrichment R
20,B20,0.571 enrichment R
21,B21,1.5 enrichment R
22,B22,0.805 enrichment R
